# Out of some 310,000 compounds screened, about 14,000 (4.5%) showed an effect of 50% or more. The effect is printed as a negative number. Some of the results follow.
# Target: human ether-à-go-go-related gene (hERG) potassium channel (human, UniProt Q12809)
# Test: primary screen, population patch clamp on CHO cells stably expressing hERG
# 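Also: peak tail current of the secondary pulse compared with the same well before compound.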
# human ether-à-go-go-related gene (hERG) potassium channel, sequence (Q12809 whole entry, looked up): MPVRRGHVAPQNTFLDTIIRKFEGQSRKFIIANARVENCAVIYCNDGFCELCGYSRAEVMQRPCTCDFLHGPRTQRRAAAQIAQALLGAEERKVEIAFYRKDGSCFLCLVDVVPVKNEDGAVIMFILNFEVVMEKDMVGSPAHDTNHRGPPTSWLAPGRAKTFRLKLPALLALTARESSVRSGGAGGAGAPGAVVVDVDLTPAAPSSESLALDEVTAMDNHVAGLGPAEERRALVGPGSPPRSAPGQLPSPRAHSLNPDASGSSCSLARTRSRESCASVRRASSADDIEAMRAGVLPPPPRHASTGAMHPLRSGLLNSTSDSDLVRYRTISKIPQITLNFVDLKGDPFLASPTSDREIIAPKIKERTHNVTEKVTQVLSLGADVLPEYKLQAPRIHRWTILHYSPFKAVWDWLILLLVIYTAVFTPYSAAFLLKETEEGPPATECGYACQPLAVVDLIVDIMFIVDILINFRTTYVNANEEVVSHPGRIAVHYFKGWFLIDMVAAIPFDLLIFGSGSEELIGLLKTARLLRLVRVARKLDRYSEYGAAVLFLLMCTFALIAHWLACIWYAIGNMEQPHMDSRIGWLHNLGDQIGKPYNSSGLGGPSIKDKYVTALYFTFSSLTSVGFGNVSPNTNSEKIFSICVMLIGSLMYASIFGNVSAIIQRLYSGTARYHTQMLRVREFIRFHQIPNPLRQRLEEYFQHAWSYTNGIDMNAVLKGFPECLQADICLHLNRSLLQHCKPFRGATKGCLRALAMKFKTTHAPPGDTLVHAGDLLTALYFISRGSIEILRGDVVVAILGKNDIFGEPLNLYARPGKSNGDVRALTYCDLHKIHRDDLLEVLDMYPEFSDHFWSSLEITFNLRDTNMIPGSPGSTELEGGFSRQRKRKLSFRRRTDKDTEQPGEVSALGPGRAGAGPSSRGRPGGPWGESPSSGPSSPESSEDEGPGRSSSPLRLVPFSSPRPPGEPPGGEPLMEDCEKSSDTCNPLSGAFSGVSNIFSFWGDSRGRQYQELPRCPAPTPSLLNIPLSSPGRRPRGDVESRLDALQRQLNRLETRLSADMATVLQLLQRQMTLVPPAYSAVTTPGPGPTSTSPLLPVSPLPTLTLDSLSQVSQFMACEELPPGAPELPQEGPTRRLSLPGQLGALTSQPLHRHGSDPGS
row,Compound,"hERG current change (%, negative = inhibition) at 10uM"
1,O=C(CN1C(=O)NC2(CCCc3ccccc32)C1=O)NCC(F)(F)F (centres unmarked),20.4%
2,Cc1ccccc1CN(C)CC(=O)Nc1ccccc1-c1ccccc1,-7.41%
3,Cc1ccc(CNc2ncnc3c2cnn3-c2ccccc2)cc1,6.42%
4,CCCn1ncc(CN2CCC(CO)(Cc3ccc(OC)cc3)CC2)c1C,-41.9%
5,Cc1cc(C)c(S(=O)(=O)N2CCN(C(=O)c3cc4ccccc4oc3=O)CC2)c(C)c1,-6.53%
6,N#Cc1ccc(C(=O)Nc2cccc(NC(=O)c3ccco3)c2)c(F)c1,-17.3%
7,Cc1c(Cl)cccc1NC(=O)N1CCN(C(=O)c2ccco2)CC1,6.16%
8,Cc1cccc(NC(=O)CSCC(=O)Nc2nnc(C3CC3)s2)c1,14.5%
9,CC(C)NC(=O)CCCOc1ccc(Cl)cc1Cl,-17.1%
10,Cc1cc(C)nc(NS(=O)(=O)c2ccc(Br)cc2)n1,16.4%
11,CC(C)CCNc1nc(-c2ccco2)c2c(c1C#N)CCCC2,9.25%
12,O=C(c1ccccc1)c1ccc(Sc2ccc([N+](=O)[O-])cc2)cc1,-7.34%
13,CC12CCC(=O)N1C(C(=O)Nc1cccc(F)c1)CS2 (centres unmarked),4.14%
14,COc1cc(-c2ccc3oc(-c4ccsc4)c(C#CC4(O)CCCCC4)c3c2)cc(OC)c1OC,7.13%
15,Cc1ccc(S(=O)(=O)N(CC(=O)N2CCOCC2)c2ccccc2F)cc1,16.3%
16,O=C(Nc1ccc2c(c1)nc1n2CCN(Cc2ccccc2)C1)c1cccs1,-13.9%
17,O=C(c1cccc([N+](=O)[O-])c1)N1CCN(Cc2ccccc2)CC1,-9.31%
18,COc1ccc(/C=C/C(=O)c2sc(-c3ccccc3)nc2C)cc1,-3.36%
19,CCOC(=O)c1c(C)nc2c(c1-c1ccc(OC)c(OC)c1)C(=O)c1ccccc1-2,-4%
20,COc1cc2c(cc1NC(=O)CC1SC(N3CCCC3)=NC1=O)oc1ccccc12 (centres unmarked),5.26%
21,CCCCN(C(=O)CSc1nnnn1-c1ccccc1OC)C1CCS(=O)(=O)C1 (centres unmarked),-6.4%
22,COc1cc(OC)nc(NC(=O)NS(=O)(=O)c2ccc(F)cc2)n1,15.1%
23,O=C1CC(NNc2nc3ccccc3s2)C(=O)N1c1ccc(F)cc1 (centres unmarked),3.25%

row,Compound,"hERG current change (%, negative = inhibition) at 10uM"
1,COc1ccc(C(=O)NCC(=O)NCC(=O)OCC(=O)c2ccc(C)cc2)cc1,4.23%
2,O=[N+]([O-])c1ccc(/C([O-])=C(/C(=S)Nc2ccccc2F)[n+]2ccccc2)cc1,-6.6%
3,CCSc1nnc(CNc2ccc(C)cc2)n1C,6.28%
4,S=C(NC1CCCC1)N1CCN(C/C=C/c2ccccc2)CC1,-41%
5,Cc1ccsc1/C=N\NC(=O)c1cc(C(C)(C)C)[nH]n1,-9.77%
6,Cc1nnc(SCC(=O)Nc2ccc(Br)cc2)n(N)c1=O,-1.1%
7,CCCN(CCC)Cc1c(C(=O)N/N=C/c2c[nH]c3ccccc23)nnn1-c1nonc1N,-18.5%
8,O=C(c1ccc(Cl)cc1)n1cnc2ccccc21,-7.51%
9,COc1ccc(S(=O)(=O)NC2CCCCC2)cc1C,10.8%
10,CN(C)C(=S)SCC(=O)NC(=O)NC(C)(C)C,6.73%
11,Cc1cccc(C)c1OC(=O)CSc1nnc(-c2ccccc2)o1,3.2%
12,CC(=O)Nc1ccccc1C,11.7%
13,Cc1cccc(N(C)C(=O)c2cc(S(=O)(=O)N3CCc4ccccc43)cn2C)c1,-20.3%
14,CCCCN(CCCNC(=O)C1CCN(S(=O)(=O)N2CCOCC2)CC1)c1ccccc1,-48.8%
15,Cc1cc(CNC(=O)c2cc(Br)ccc2Cl)nn1C,-3.39%
16,CCCN(CCC)c1nc(N(CCC)CCC)[nH]c(=O)n1,3.77%
17,COc1ccc(S(=O)(=O)N2CCCC2CNC(=O)C(=O)NCc2ccc(C)cc2)cc1 (centres unmarked),-29.6%
18,C=CCn1c(Cc2ccc(OC)cc2)nnc1SCC(N)=O,-11.6%
19,O=C(c1ccco1)N1CCN(c2ncnc3scc(-c4cccs4)c23)CC1,-63.9%
20,COc1cc2[nH]c(=O)n(CCC(=O)NCCC(C)C)c(=O)c2cc1OC,7.13%
21,COc1ccccc1P(=O)(c1ccccc1)c1ccccc1,15.1%
22,CC1(C)[C@H]2CC=C(CN3CCC(N4CCC(C(=O)N5CCCC5)CC4)CC3)[C@@H]1C2,-25.1%
23,COc1cc(Cl)c(CN2CCCC(CO)(Cc3cccc(Cl)c3)C2)cc1OC (centres unmarked),-45.6%

row,Compound,"hERG current change (%, negative = inhibition) at 10uM"
1,Cc1nc2c([N+](=O)[O-])c(C)c(C)cc2[nH]1,11.7%
2,COc1cc(CNCc2ccc3c(c2)OCO3)c([N+](=O)[O-])cc1OC,8.31%
3,O=C(NCCCN1CCOCC1)C1Cc2c(ccc3ccccc23)O1 (centres unmarked),-9.07%
4,CN(CC(=O)NCc1ccc(F)cc1)S(=O)(=O)c1cccc2nsnc12,-21.1%
5,CCOC(=O)c1c(C)[nH]c(C=C2C(=O)CCCC2=O)c1O,-1.8%
6,COc1ccc(NC(=O)CSc2nnnn2-c2ccccc2OC)c(OC)c1,-6.71%
7,Cc1[nH]c2ccccc2c1C(=O)C(=O)NCC1CCCO1 (centres unmarked),6.3%
8,CC(C)c1ccc(-c2cc(C(=O)N3CCOCC3)c3cc(Br)ccc3n2)cc1,4.92%
9,COc1ccccc1NS(=O)(=O)c1ccc2oc(=S)[nH]c2c1,2.14%
10,CCOC(=O)N1CCN(C(=O)c2cnn3ccccc23)CC1,10.6%
11,CCN1CCN(c2sc(S(C)(=O)=O)nc2S(=O)(=O)c2ccc(Cl)cc2)CC1,-36.7%
12,CCCOc1ccc(/C=N/NC(=O)c2nnn(-c3nonc3N)c2-c2cccs2)cc1OC,9.32%
13,COc1ccc(C(=O)COc2ccccc2C(N)=O)cc1,4.32%
14,COc1ccc(Cn2cnc3sccc3c2=O)cc1,-8.47%
15,CC(OC(=O)c1cccc(S(=O)(=O)Nc2ccccc2F)c1)C(=O)NCc1ccc2c(c1)OCO2 (centres unmarked),12.8%
16,COc1cc(CN2CCN(C(=O)Cc3ccccc3)CC2)cc(OC)c1OC.O=C(O)C(=O)O,-0.522%
17,Oc1c(Cl)cc(Cl)cc1C=Nc1ccc(N2CCOCC2)cc1,9.99%
18,COc1ccc(C(=O)N2CCN(c3ncccn3)CC2)cc1S(=O)(=O)N1CCOCC1,6.96%
19,CCc1ccc(CN(C(=O)c2cc3ccccc3oc2=O)C2CCS(=O)(=O)C2)cc1 (centres unmarked),-56.5%
20,Cc1cccc2cc(CN(CCc3ccccc3)C(=O)N3CCOCC3)c3nnnn3c12,12.5%
21,CC(=O)Nc1ccc2nc(CN3CCC(CO)(CCc4ccccc4)CC3)ccc2c1,-68.2%
22,CNC(=O)COC(=O)CNC(=O)c1cc(Cl)cc([N+](=O)[O-])c1,20.2%
23,O=C(NC1CCCC1)C(NS(=O)(=O)c1ccc(Br)s1)c1ccccc1 (centres unmarked),5.51%

row,Compound,"hERG current change (%, negative = inhibition) at 10uM"
1,Cn1c(CC(=O)Nc2ccccc2F)nnc1SCC(=O)Nc1ccccc1Br,8.69%
2,CC(C)c1ccc(/C=C/C(=O)NCc2ccc(S(N)(=O)=O)cc2)cc1,69.2%
3,CCOCCOC(=O)C1=C(C)N(C)C(=O)NC1c1cc(Cl)c(O)c(OCC)c1 (centres unmarked),-9.39%
4,Cc1ccc(-c2ccnc3cc(C)nn23)cc1,-6.48%
5,CN(CCOc1ccccc1)C(=O)c1cc(S(=O)(=O)N2CCOCC2)ccc1Cl,-48.4%
6,COc1ccccc1-n1c(SCC(=O)Nc2cccc(C(=O)O)c2)nnc1-c1ccccc1O,11%
7,Cc1nnc(NC(=O)CSc2n[nH]c(-c3ccccc3C)n2)s1,8.24%
8,O=C(CCC(=O)N1CCCC1)Nc1ccc(Cl)c(Cl)c1,0.601%
9,O=C(Nc1c2c(nn1-c1ccc(F)cc1)CS(=O)(=O)C2)c1ccc(Br)o1,-25.3%
10,CN(C)c1ccc(C(=S)Nc2ccccc2)cc1,12.5%
11,COc1ccc(NC(=S)N2CCN(C(=O)c3ccco3)CC2)c(OC)c1,-5.41%
12,Cl.NCCCCCc1nnc(SCc2cccc(Cl)c2)o1,-16.9%
13,CCN(CC)C(=O)CSc1nnc(-c2ccccc2)o1,1.36%
14,O=C(NCc1ccccc1)C12CC3CC(CC(Cl)(C3)C1)C2,2.82%
15,CC1Cc2ccccc2N1C(=O)CNc1cccc(S(=O)(=O)N2CCCC2)c1 (centres unmarked),-23.4%
16,Cc1ccc(S(=O)(=O)N2CCOCC2)cc1NC(=O)COC(=O)CNC(=O)c1ccccc1,9.26%
17,CSc1nnc(-c2cc(-c3ccc(C)cc3)nc3ccccc23)o1,-2.94%
18,O=C(Oc1cccc2c(O)cccc12)c1ccccc1,9.18%
19,O=C(COc1ccc(-c2ccccc2)cc1)N1CCCC1,-54.5%
20,c1ccc(-c2nc(-c3ccco3)cs2)nc1,-0.597%

# Reference: publication PMC4336329 (PLoS ONE, 2015)
